According to PubChem BioAssay (NCATS):
Where “and” joins values, the source holds several entries; their conditions need not be identical. Equal entries are not always repeated. Inconclusive means that the source gave no clear call. Such entries were picked first, then a sample of the others. A potency beside an inconclusive call is a rough fit, not a confirmed value. For some assays here: A note “side channel” means that the fit belongs to a control or component signal, not to the main read-out. Calls of active or inactive are those of the source. Unless noted, calls come from the whole dose curve; as a rule, active = well fitted curve in the direction sought with a large enough effect; inconclusive = small, poorly fitted or top-dose-only effect, or another doubt; inactive = no such curve, though single readings can be large; an effect the other way counts as inactive or inconclusive.

target: Tyrosine-protein phosphatase non-receptor type substrate 1 (Homo sapiens) + Leukocyte surface antigen CD47 (Homo sapiens) (UniProt P78324+Q08722); assay: CD47-SIRPalpha protein protein interaction - HTRF assay qHTS validation (AID 1347058; active = well fitted curve in the direction sought with a large enough effect in the signal ratio, not every such curve was filed as active; inconclusive = small, poorly fitted or top-dose-only effect, or effect the other way, or a change in a side signal; inactive = no such curve, though single readings can be large or run the other way; the % refers to the signal ratio); details: TR-FRET HTRF CD47-His / biotin-SIRPalpha binding, ratio 665/615; series mostly up to 38.3 µM
In short: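 TR-FRET read (Ch1/Ch2 ratio) of soluble extracellular CD47 and Avi-biotinylated SIRPalpha domains in PBS pH 7.4 with 0.05% IGEPAL; 7-point compound titration. Sequential 30 min room-temperature steps; non-biotinylated SIRPalpha as control inhibitor.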
Potency is the fitted concentration of half-maximal effect; tags give direction and shape of the fitted curve.

Sequence of UniProt P78324 (P78324 whole entry, looked up, the tested form may be a part): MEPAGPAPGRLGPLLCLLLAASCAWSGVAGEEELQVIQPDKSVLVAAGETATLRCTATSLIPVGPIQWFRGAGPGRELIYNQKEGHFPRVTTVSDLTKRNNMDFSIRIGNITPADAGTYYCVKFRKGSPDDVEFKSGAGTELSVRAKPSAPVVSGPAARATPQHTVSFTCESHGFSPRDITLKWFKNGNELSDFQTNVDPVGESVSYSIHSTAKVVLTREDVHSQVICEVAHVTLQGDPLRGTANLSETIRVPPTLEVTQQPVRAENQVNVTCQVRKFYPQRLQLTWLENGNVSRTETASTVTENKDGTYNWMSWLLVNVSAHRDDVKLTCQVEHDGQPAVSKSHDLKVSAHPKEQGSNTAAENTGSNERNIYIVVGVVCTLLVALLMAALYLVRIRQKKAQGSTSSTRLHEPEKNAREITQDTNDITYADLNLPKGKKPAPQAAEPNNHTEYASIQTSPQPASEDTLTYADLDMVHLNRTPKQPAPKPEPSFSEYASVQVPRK
Sequence of UniProt P78324 (Q08722 whole entry, looked up, the tested form may be a part): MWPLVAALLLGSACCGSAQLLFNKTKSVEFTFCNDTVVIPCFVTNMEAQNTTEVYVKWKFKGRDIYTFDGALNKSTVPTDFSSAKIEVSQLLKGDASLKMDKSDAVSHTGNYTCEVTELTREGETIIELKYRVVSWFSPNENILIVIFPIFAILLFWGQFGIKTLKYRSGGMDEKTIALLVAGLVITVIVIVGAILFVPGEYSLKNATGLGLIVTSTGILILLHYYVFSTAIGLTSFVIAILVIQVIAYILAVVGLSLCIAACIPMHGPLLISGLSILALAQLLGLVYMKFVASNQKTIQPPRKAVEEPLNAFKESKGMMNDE

Structure (SMILES)	Potency
Cc1ccc(O)c(N=Nc2ccccc2)n1	inconclusive: 6.56 µM [side channel, falling, partial curve]
O=C(/C=C/c1ccc(O)cc1)c1ccc(O)cc1O	inconclusive: 14.7 µM [rising, partial curve]
CC(=O)/C=C1\C(=O)N(C)c2ccccc21	inconclusive: 14.7 µM [side channel, falling, partial curve]
O=Nc1c(-c2c(O)[nH]c3cc(Br)ccc23)[nH]c2ccccc12	inconclusive: 1.31 µM [side channel, falling, full curve, poor fit]
O=C1c2c(O)ccc(O)c2C(=O)c2c(NCCNCCO)ccc(NCCNCCO)c21	inconclusive: 2.61 µM [side channel, falling, partial curve]
O=C1NC(=O)/C(=C/c2ccc3c(c2)OC(F)(F)O3)S1	inconclusive: 16.5 µM [side channel, falling, single point]
CN(C)c1ccc(/C=C2\C(=O)Nc3ccccc32)cc1	inconclusive: 9.27 µM [side channel, falling, partial curve]
Nc1ccc(-c2ccc3ccccc3n2)cc1	inconclusive: 11.7 µM [side channel, falling, partial curve]
CCOC(=O)N1CCN(/[N+]([O-])=N/Oc2ccc([N+](=O)[O-])cc2[N+](=O)[O-])CC1	inconclusive: 10.4 µM [side channel, falling, partial curve]
O=C1/C(=C/c2ccsc2)CC/C1=C\c1cccs1	inconclusive: 1.31 µM [side channel, falling, full curve, poor fit]

tested on: not listed separately; assay: qHTS of pediatric cancer cell lines to identify multiple opportunities for drug repurposing: Primary screen for DAOY cells (AID 1347090); details: DAOY medulloblastoma viability, CellTiter-Glo luminescence, 48 h; series mostly up to 46 µM; note: nearly all actives have a fitted effect of over 55% in size
In short: (§1)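 Eight- or eleven-point concentration series, 48 h treatment at 37 degrees C in growth media; readout CellTiter-Glo luminescence. Potency and efficacy were taken from the concentration-response curves.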

Structure (SMILES)	Potency
Cc1cc(O)c2c(c1)C(=O)c1cc(O)cc(O)c1C2=O	inconclusive: 11.8 µM [cytotoxic, partial curve, poor fit]
CCN(CC)C(=S)SSC(=S)N(CC)CC	active: 11.8 nM and active: 49.5 nM and active: 133 nM
O=Nc1c(-c2c(O)[nH]c3cc(Br)ccc23)[nH]c2ccccc12	active: 11.8 µM
O=C1c2c(O)ccc(O)c2C(=O)c2c(NCCNCCO)ccc(NCCNCCO)c21	active: 2.96 µM and active: 2.66 µM

tested on: not listed separately; assay: qHTS of pediatric cancer cell lines to identify multiple opportunities for drug repurposing: Primary screen for SJ-GBM2 cells (AID 1347091); details: SJ-GBM2 viability, CellTiter-Glo luminescence, 48 h; series mostly up to 46 µM
In short: as §1

Structure (SMILES)	Potency
CCN(CC)C(=S)SSC(=S)N(CC)CC	inconclusive: 39.4 µM [cytotoxic, single point] and inconclusive: 21.1 µM [cytotoxic, partial curve]
Cn1ccc2cc3c(cc21)CCN3C(=O)Nc1cccnc1	inactive
O=Nc1c(-c2c(O)[nH]c3cc(Br)ccc23)[nH]c2ccccc12	active: 5.9 µM
